This note sets out measurements from paper PMC12820563, “FoxP3 forms a head-to-head dimer in vivo and stabilizes its multimerization on adjacent microsatellites”.

This is one part of the list.

In the assay the target is T1, MBP-FoxP1dN (Mus musculus, UniProt P58462 326-579).
T1 sequence: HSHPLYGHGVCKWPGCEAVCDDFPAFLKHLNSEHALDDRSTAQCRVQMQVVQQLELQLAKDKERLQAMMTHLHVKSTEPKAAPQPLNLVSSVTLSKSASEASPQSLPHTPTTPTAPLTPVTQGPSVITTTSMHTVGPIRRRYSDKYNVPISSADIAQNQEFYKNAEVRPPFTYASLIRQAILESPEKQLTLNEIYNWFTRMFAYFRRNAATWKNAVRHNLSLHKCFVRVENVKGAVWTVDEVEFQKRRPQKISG
The experiment in a line: PD-seq (MBP pull-down with sequencing); 20 mM Tris-HCl pH 7.5, 100 mM NaCl, 1.5 mM MgCl2, 0.4 uM protein, 0.1 uM dsDNA library, 30 min, room temperature, amylose pull-down; high values mean tight binding. The note with it: protein: recombinant; tags: His6-MBP; chain copies: 2; dsDNA, one strand shown. In a few lines:
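The N-terminus-lacking fragment of mouse FoxP3 or FoxP1 carried a His6-MBP tag and was expressed in E. coli. At 0.4 µM it was incubated with 0.1 µM Klenow-filled degenerate double-stranded DNA library for 30 min at room temperature in Tris pH 7.5 buffer with NaCl and MgCl2, and complexes were caught on amylose resin, washed three times, released with proteinase K, PCR-barcoded and Illumina-sequenced. Binding is reads-per-million enrichment of pull-down over input with replicates pooled.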
For the sequence “GATGATTGTTCTCCCAGCTGATGAATTGCGTAATTCGAGTAAACAAATTTTCCTAATCTTTCTGTTCAAGCGCCATCTAC”, the binding signal was 1.22 RPM ratio (pull-down/input).

For “GATGATTGTTCTCCCAGCTGATGAATTTTCCCGTTCGAGTAAACAAATTTTCCTAATCTTTCTGTTCAAGCGCCATCTAC”, the binding signal was 0.9 RPM ratio (pull-down/input).

“GATGATTGTTCTCCCAGCTGATGAATTAACGGGTTCGAGTAAACAAATTTTCCTAATCTTTCTGTTCAAGCGCCATCTAC”: the binding signal was 0.873 RPM ratio (pull-down/input).

“GATGATTGTTCTCCCAGCTGATGAATTCTACGGGTCGAGTAAACAAATTTTCCTAATCTTTCTGTTCAAGCGCCATCTAC”: the binding signal is 0.727 RPM ratio (pull-down/input).

As for “GATGATTGTTCTCCCAGCTGATGAATTATAGGGGTCGAGTAAACAAATTTTCCTAATCTTTCTGTTCAAGCGCCATCTAC”, the binding signal is 0.826 RPM ratio (pull-down/input).

For the sequence “GATGATTGTTCTCCCAGCTGATGAATTCAATACATCGAGTAAACAAATTTTCCTAATCTTTCTGTTCAAGCGCCATCTAC”, the binding signal was 1.19 RPM ratio (pull-down/input).

Consider “GATGATTGTTCTCCCAGCTGATGAATTAATCTCGTCGAGTAAACAAATTTTCCTAATCTTTCTGTTCAAGCGCCATCTAC”, for which the binding signal is 0.852 RPM ratio (pull-down/input).

As to “GATGATTGTTCTCCCAGCTGATGAATTCTAGACCTCGAGTAAACAAATTTTCCTAATCTTTCTGTTCAAGCGCCATCTAC”, the binding signal was 0.748 RPM ratio (pull-down/input).

For the sequence “GATGATTGTTCTCCCAGCTGATGAATTGGCGCTCTCGAGTAAACAAATTTTCCTAATCTTTCTGTTCAAGCGCCATCTAC”, the binding signal is 0.812 RPM ratio (pull-down/input).

Regarding “GATGATTGTTCTCCCAGCTGATGAATTAAAGGAGTCGAGTAAACAAATTTTCCTAATCTTTCTGTTCAAGCGCCATCTAC”, the binding signal is 0.848 RPM ratio (pull-down/input).

As for “GATGATTGTTCTCCCAGCTGATGAATTGAGCCGCTCGAGTAAACAAATTTTCCTAATCTTTCTGTTCAAGCGCCATCTAC”, the binding signal was 0.734 RPM ratio (pull-down/input).

For the sequence “GATGATTGTTCTCCCAGCTGATGAATTGATGTGATCGAGTAAACAAATTTTCCTAATCTTTCTGTTCAAGCGCCATCTAC”, the binding signal was 1.17 RPM ratio (pull-down/input).

“GATGATTGTTCTCCCAGCTGATGAATTAGCGTCCTCGAGTAAACAAATTTTCCTAATCTTTCTGTTCAAGCGCCATCTAC”: the binding signal is 0.872 RPM ratio (pull-down/input).

Regarding “GATGATTGTTCTCCCAGCTGATGAATTCCCAATTTCGAGTAAACAAATTTTCCTAATCTTTCTGTTCAAGCGCCATCTAC”, the binding signal was 0.913 RPM ratio (pull-down/input).

Consider “GATGATTGTTCTCCCAGCTGATGAATTAAGATCCTCGAGTAAACAAATTTTCCTAATCTTTCTGTTCAAGCGCCATCTAC”, for which the binding signal is 0.78 RPM ratio (pull-down/input).

For the sequence “GATGATTGTTCTCCCAGCTGATGAATTGTTAGTATCGAGTAAACAAATTTTCCTAATCTTTCTGTTCAAGCGCCATCTAC”, the binding signal is 1.76 RPM ratio (pull-down/input).

As to “GATGATTGTTCTCCCAGCTGATGAATTGCCAAAGTCGAGTAAACAAATTTTCCTAATCTTTCTGTTCAAGCGCCATCTAC”, the binding signal is 0.982 RPM ratio (pull-down/input).

In the case of “GATGATTGTTCTCCCAGCTGATGAATTATAATTCTCGAGTAAACAAATTTTCCTAATCTTTCTGTTCAAGCGCCATCTAC”, the binding signal was 0.978 RPM ratio (pull-down/input).

In the case of “GATGATTGTTCTCCCAGCTGATGAATTTACCTAATCGAGTAAACAAATTTTCCTAATCTTTCTGTTCAAGCGCCATCTAC”, the binding signal was 1.47 RPM ratio (pull-down/input).

Take “GATGATTGTTCTCCCAGCTGATGAATTGGATGTCTCGAGTAAACAAATTTTCCTAATCTTTCTGTTCAAGCGCCATCTAC”: the binding signal was 0.868 RPM ratio (pull-down/input).

Take “GATGATTGTTCTCCCAGCTGATGAATTTTATATTTCGAGTAAACAAATTTTCCTAATCTTTCTGTTCAAGCGCCATCTAC”: the binding signal was 1.07 RPM ratio (pull-down/input).

For the sequence “GATGATTGTTCTCCCAGCTGATGAATTATCCACGTCGAGTAAACAAATTTTCCTAATCTTTCTGTTCAAGCGCCATCTAC”, the binding signal was 0.947 RPM ratio (pull-down/input).

For the sequence “GATGATTGTTCTCCCAGCTGATGAATTGTACGCGTCGAGTAAACAAATTTTCCTAATCTTTCTGTTCAAGCGCCATCTAC”, the binding signal was 0.979 RPM ratio (pull-down/input).

In the case of “GATGATTGTTCTCCCAGCTGATGAATTAATCTGCTCGAGTAAACAAATTTTCCTAATCTTTCTGTTCAAGCGCCATCTAC”, the binding signal was 0.843 RPM ratio (pull-down/input).

On to “GATGATTGTTCTCCCAGCTGATGAATTAAGCGTGTCGAGTAAACAAATTTTCCTAATCTTTCTGTTCAAGCGCCATCTAC”, for which the binding signal was 1.02 RPM ratio (pull-down/input).

Consider “GATGATTGTTCTCCCAGCTGATGAATTCTAGTGCTCGAGTAAACAAATTTTCCTAATCTTTCTGTTCAAGCGCCATCTAC”, for which the binding signal is 0.871 RPM ratio (pull-down/input).

Consider “GATGATTGTTCTCCCAGCTGATGAATTCAGAGCCTCGAGTAAACAAATTTTCCTAATCTTTCTGTTCAAGCGCCATCTAC”, for which the binding signal is 0.814 RPM ratio (pull-down/input).

As to “GATGATTGTTCTCCCAGCTGATGAATTGGCGACCTCGAGTAAACAAATTTTCCTAATCTTTCTGTTCAAGCGCCATCTAC”, the binding signal was 0.778 RPM ratio (pull-down/input).

On to “GATGATTGTTCTCCCAGCTGATGAATTACCTAGGTCGAGTAAACAAATTTTCCTAATCTTTCTGTTCAAGCGCCATCTAC”, for which the binding signal is 0.892 RPM ratio (pull-down/input).

On to “GATGATTGTTCTCCCAGCTGATGAATTTCTAGCCTCGAGTAAACAAATTTTCCTAATCTTTCTGTTCAAGCGCCATCTAC”, for which the binding signal was 0.814 RPM ratio (pull-down/input).

In the case of “GATGATTGTTCTCCCAGCTGATGAATTACTGCGATCGAGTAAACAAATTTTCCTAATCTTTCTGTTCAAGCGCCATCTAC”, the binding signal is 1.06 RPM ratio (pull-down/input).

With “GATGATTGTTCTCCCAGCTGATGAATTTCTCGCATCGAGTAAACAAATTTTCCTAATCTTTCTGTTCAAGCGCCATCTAC”, the binding signal was 1.12 RPM ratio (pull-down/input).

Consider “GATGATTGTTCTCCCAGCTGATGAATTACACCGATCGAGTAAACAAATTTTCCTAATCTTTCTGTTCAAGCGCCATCTAC”, for which the binding signal is 1.08 RPM ratio (pull-down/input).

Regarding “GATGATTGTTCTCCCAGCTGATGAATTTAAAGCGTCGAGTAAACAAATTTTCCTAATCTTTCTGTTCAAGCGCCATCTAC”, the binding signal was 0.962 RPM ratio (pull-down/input).

Consider “GATGATTGTTCTCCCAGCTGATGAATTCTACACTTCGAGTAAACAAATTTTCCTAATCTTTCTGTTCAAGCGCCATCTAC”, for which the binding signal was 0.924 RPM ratio (pull-down/input).

On to “GATGATTGTTCTCCCAGCTGATGAATTTCCAGAATCGAGTAAACAAATTTTCCTAATCTTTCTGTTCAAGCGCCATCTAC”, for which the binding signal is 0.894 RPM ratio (pull-down/input).

With “GATGATTGTTCTCCCAGCTGATGAATTTCTTGACTCGAGTAAACAAATTTTCCTAATCTTTCTGTTCAAGCGCCATCTAC”, the binding signal is 0.868 RPM ratio (pull-down/input).

For the sequence “GATGATTGTTCTCCCAGCTGATGAATTCTACTAATCGAGTAAACAAATTTTCCTAATCTTTCTGTTCAAGCGCCATCTAC”, the binding signal is 0.957 RPM ratio (pull-down/input).

Regarding “GATGATTGTTCTCCCAGCTGATGAATTGTTAGGCTCGAGTAAACAAATTTTCCTAATCTTTCTGTTCAAGCGCCATCTAC”, the binding signal was 0.965 RPM ratio (pull-down/input).

In the case of “GATGATTGTTCTCCCAGCTGATGAATTACGAACCTCGAGTAAACAAATTTTCCTAATCTTTCTGTTCAAGCGCCATCTAC”, the binding signal was 0.885 RPM ratio (pull-down/input).
